These results are taken from the supplement of paper PMC7726561.

Whole data set: some 1,100 sequences, median “thermal melting temperature (Tm) of peptide-HLA complex” near 58, cut for the lowest 2% near 42. Some of the results follow.
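Note: cell lysates heated 10 min at 37–73 °C, remaining pHLA pulled down with pan-class I antibody, peptides quantified by DIA-MS versus 37 °C, Tm where half the complex is lost.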

In this assay the target is HLA-A*02:01. In words: thermal melting temperature (Tm) of peptide-HLA complex; higher = more thermostable pHLA complex. The conditions noted are these: C1R-A*02:01.
SLLDGVVEKL gave a thermal melting temperature of 55.5 °C.
LLSDTVQHL showed a thermal melting temperature of 56.5 °C.
Take YQLELRTTL: the thermal melting temperature came to 54.7 °C.
With NLLESVQRL, the thermal melting temperature came to 49.5 °C.
HLFETISQA came in with a thermal melting temperature of 54.9 °C.
Next, QLQDFDWQV: 59.5 °C.
For FILPHISTA, the thermal melting temperature came to 55.7 °C.
Turning to VLHELTFQA, the thermal melting temperature is 60.4 °C.
Next, SLIAGVIRV: 60.1 °C; SVYPNGHFV: 53 °C.
The sequence QLLTAIVKL yielded a thermal melting temperature of 53.4 °C.
Consider QLSDVAEKL, for which the thermal melting temperature came to 56.1 °C.
Next, TLFDYEVRL: 62.7 °C; LLKDSIVQL: 47.9 °C.
For TTFDKEFLL, the thermal melting temperature came to 54.4 °C.
The sequence FLIGDEAATHL had a thermal melting temperature of 47.4 °C.
Consider SLHDAIMIV, for which the thermal melting temperature is 54.4 °C.
Consider ALFPAPLAQI, for which the thermal melting temperature came to 62.7 °C.
VLFGVETHV returned a thermal melting temperature of 60.4 °C.
Consider SLADIAQKL, for which the thermal melting temperature is 56.7 °C.
In the case of RLIQESPTL, the thermal melting temperature came to 60.4 °C.
Turning to FLVEHVLTL, the thermal melting temperature worked out at 52 °C.
Turning to ALSDHHIYL, the thermal melting temperature was 63.2 °C.
FVADGIFKA gave a thermal melting temperature of 41.1 °C.
In turn, AMFESSQNVLL yielded a thermal melting temperature of 56.1 °C.
In turn, VLDEEIAKA displayed a thermal melting temperature of 40.7 °C.
For RVISELQEA, the thermal melting temperature was 40.7 °C.
Sequence ELMEQVPHI had a thermal melting temperature of 48.9 °C.
Sequence FLQPGGYHV gave a thermal melting temperature of 58.9 °C.
Then KMDEVLYSI, with 59 °C; and RLQDELVTL, with 63.1 °C.
On to RQIEYYFSV, for which the thermal melting temperature stood at 61.3 °C.
For the sequence KMFESFIESV, the thermal melting temperature came out at 58.8 °C.
Sequence QLQDTLIHL came in with a thermal melting temperature of 57.2 °C.
In the case of ILTDITKGV, the thermal melting temperature was 60.9 °C.
In turn, ALLDGRVQL gave a thermal melting temperature of 61.3 °C.
GTIGLIHAV returned a thermal melting temperature of 55.5 °C.
Turning to SLLPFLKAV, the thermal melting temperature was found to be 61.9 °C.
Regarding SMSADVPLV, the thermal melting temperature worked out at 61.3 °C.
Then TMADQIVTV, with 58 °C; and ALDKATVLL, with 58 °C; and NLVPMIIHL, with 51.3 °C.
Then ALITRIFGV, with 63.6 °C; and LLHDGIPVV, with 62.2 °C.
The sequence SLLSHVEQL displayed a thermal melting temperature of 61.3 °C.
VLLSDSNLHDA displayed a thermal melting temperature of 50 °C.
With VLAENPDIFAV, the thermal melting temperature is 58.7 °C.
With FLIRESETL, the thermal melting temperature was 56.2 °C.
Consider SLAGDVALQQL, for which the thermal melting temperature stood at 56 °C.
FIINGIEKV had a thermal melting temperature of 58.8 °C.
In the case of ALAEALKEV, the thermal melting temperature came out at 62 °C.
Take RVADVIAQV: the thermal melting temperature came to 60.2 °C.
Turning to ILQDEQYLM, the thermal melting temperature came to 54.9 °C.
Regarding GLLTEIRAV, the thermal melting temperature stood at 62.6 °C.
For the sequence YIAEEYSRL, the thermal melting temperature was determined as 49.5 °C.
SLYDWNVKL displayed a thermal melting temperature of 50.3 °C.
